Assay results reported in PubChem BioAssay AID445 (National Center for Advancing Translational Sciences (NCATS), 2006).
About 40 (0.04%) of roughly 110,000 compounds were called active. Inconclusive means that the source gave no clear call. Such entries were picked first, then a sample of the others. Calls come from the whole dose curve; as a rule, active = well fitted curve in the direction sought with a large enough effect in the signal ratio (not every such curve was filed as active); inconclusive = small, poorly fitted or top-dose-only effect, or a change in a side signal; inactive = flat fitted curve, though single readings scatter; the % refers to the signal ratio. Where the call is inconclusive, the potency comes from a doubtful curve fit.

Test: IkB Signaling;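 for IkBa stabilization activation: 0% = basal untreated cells and 100% = reference inhibitor full response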
Conditions: ABC-DLBCL IkBa-CBG/CBR dual luciferase ratio (green luciferase fused to IkBa over red control in OCI-Ly3 lymphoma cells), 4 h; IkBa stabilization activation: at 57.1 µM (top of the series), scaled: untreated 0%, proteasome inhibitor 100% unless noted
Summary of the method: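 Curves were fitted separately to fusion (green), unfused (red) and ratio luminescence, then classed by r2, magnitude and activity. Cells: OCI-Ly3, 4 h compound plus doxycycline at 37C; 10 uM MG-132 defined full response.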
Potency is the fitted concentration of half-maximal effect.

Structure (SMILES) | IkBa stabilization activation | Potency
CC(C)CNc1nc2ncnc(N)c2[nH]1 | inactive: -1.56% [at 11.4 µM, scaled: untreated 0%, proteasome inhibitor 100%] | –
CCOC(=O)c1c(-c2ccccc2)oc2ccc(N(C(C)=O)S(=O)(=O)c3ccc(CC)cc3)cc12 | inconclusive: 0.175% [signal inhibitor] | –
CN(C)C(=O)c1ccc(-c2nccc(-n3ccnc3)n2)cc1 | inactive: 1.19% [at 11.4 µM, scaled: untreated 0%, proteasome inhibitor 100%] | –
CCOc1ccccc1N(C(=O)c1snc(C(N)=O)c1N)C(C(=O)NC1CCCC1)c1ccco1 (stereo not given) | inconclusive: 2.4% [signal inhibitor] | –
COc1ccccc1Nc1nc(N)nc(CSCCO)n1 | – | inconclusive: 31.6 µM [rising, partial curve]
O=C(COc1ccccc1-c1nc(-c2ccccc2)no1)Nc1cccc([N+](=O)[O-])c1 | inconclusive: 2.02% [signal inhibitor] | –
Cc1ccc(CCNC(=O)c2cc3c(s2)-c2c(C)cccc2OC3)cc1 | inconclusive: 1.93% [signal inhibitor] | –
COc1cccc(CNC(=O)c2ccc(-c3nc(COc4ccccc4)c(C)o3)cc2)c1 | inactive | –
CCOc1ccc(C2CC(c3c(O)n(C4CCCCC4)c(=O)[nH]c3=O)=Nc3ccccc3S2)cc1 (stereo not given) | inconclusive: -2.31% [signal inhibitor] | –
O=C(Nc1sc2c(c1C(=O)NCc1cccnc1)CCCC2)c1cc(=O)c2ccccc2o1 | inconclusive: 9.47% [signal inhibitor] | –
Cc1ccc(NS(=O)(=O)c2ccc(-n3cccn3)cc2)cc1Cl | inconclusive: 1.46% [signal inhibitor] | –
O=C(Cc1ccc(F)cc1)NCc1ccc2c(c1)CCN2C(=O)c1ccc(F)cc1 | inconclusive: -0.845% [signal inhibitor] | –
COc1ccc(CN[C@H](C)C(=O)O)cc1 | inactive: -0.905% [at 11.4 µM, scaled: untreated 0%, proteasome inhibitor 100%] | –
COC(=O)c1cc2oc3ccccc3c2n1CC(=O)Nc1ccc(Cl)cc1F | inactive | –
COc1cccc(-n2c(SCC(=O)Nc3c(C)cc(C)cc3C)nc3c([nH]c4ccccc43)c2=O)c1 | inconclusive: -3.43% [signal inhibitor] | –
C=CCn1c(=O)c(C(=O)Nc2ccccc2OC)c(O)c2ccccc21 | – | inconclusive: 0.631 µM [signal inhibitor, full curve]
CCOc1ccc(C(=O)NC2CC(=O)N(c3ccc(C)cc3)C2)cc1OCC (stereo not given) | inconclusive: 0.413% [signal inhibitor] | –
COc1ccc(NC(=O)CSc2nc3c(c(=O)n2-c2ccc(F)cc2)SCC3)cc1 | – | inconclusive: 15.8 µM [signal inhibitor, partial curve]
CC1CCN(S(=O)(=O)c2ccc3c(ccn3CCC(=O)NCc3ccccc3F)c2)CC1 | inconclusive: 2.2% [signal inhibitor] | –
CCC(C)(C)n1nnnc1C(c1cccs1)N1CCc2ccccc21 (stereo not given) | inconclusive: 3.9% [signal inhibitor] | –
COc1ccc(NC(=O)c2c(-c3ccccc3)c(-c3ccccc3)nn(C)c2=O)cc1OC | inconclusive: 4.45% [signal inhibitor] | –
Cc1ccccc1NC(=O)CCS(=O)(=O)c1cc(Br)cc2c1N(C(=O)C1CC1)CC2 | inconclusive: 4.38% [signal inhibitor] | –

Structure (SMILES) | IkBa stabilization activation | Potency
Cc1ccccc1CNC(=O)CN1C(=O)C2CCCCN2c2ccc(C(=O)N3CCCC3)cc21 (stereo not given) | inconclusive: 0.389% [signal inhibitor] | –
COC(=O)c1ccc(COc2ccc(C3C4=C(CCCC4=O)Nc4onc(C)c43)cc2)cc1 (stereo not given) | inconclusive: 5.36% [signal inhibitor] | –
O=C(Nc1ccc2c(c1)N(C1CCCC1)C(=O)c1ccccc1S2)c1ccccc1F | inactive | –
Cc1ccccc1OCC(=O)Nc1cccc(C(=O)OCc2cc(=O)n3c(C)csc3n2)c1 | – | inconclusive: 15.8 µM [signal inhibitor]
Cc1ccc(S(=O)(=O)Cc2ccc(C(=O)N3CCN(c4cccc(Cl)c4)CC3)o2)cc1 | – | inconclusive: 39.8 µM [signal inhibitor]
O=C(Cn1c(=O)n(-c2ccc(Cl)cc2)c(=O)c2sc3ccccc3c21)NC1CCCC1 | inconclusive: 3.47% [signal inhibitor] | –
CCc1nc2cccnc2n1-c1ccc(CC(=O)Nc2cccc(C)c2C)cc1 | inconclusive: 1.8% [signal inhibitor] | –
c1ccc(CN2CCN(c3ncnc4c3cnn4-c3ccccc3)CC2)cc1 | inactive | –
CCc1cc(C(=O)Cc2ccc(F)cc2)c(O)cc1O | inconclusive: 3.32% [signal inhibitor] | –
CCc1cccc(NC(=O)C2CCC(CNS(=O)(=O)c3ccc(Br)s3)CC2)c1 (stereo not given) | inconclusive: 2.95% [signal inhibitor] | –
N#C/C(=C\c1ccc(O)c(O)c1)C(=O)NCCCNC(=O)/C(C#N)=C/c1ccc(O)c(O)c1 | inactive | –
Cc1cc(NC(=O)c2noc3c2CCCC3)nn1Cc1ccc(Cl)cc1 | inconclusive: 4.14% [signal inhibitor] | –
CSCCC(NC(=O)c1cncc(Br)c1)C(=O)O (stereo not given) | inconclusive: 4.92% [signal inhibitor] | –
Cc1ccccc1Cn1c2ccccc2c2cnn(CC(=O)NCc3ccccn3)c(=O)c21 | inconclusive: 0.354% [signal inhibitor] | –
CCSc1ccccc1C(=O)Nc1ccc(-c2nc3ccccc3s2)c(O)c1 | inactive | –
Cc1ccc(C)c(N2CCN(C(=O)NCc3noc4ccc(C)cc34)CC2)c1 | inconclusive: -0.118% [signal inhibitor] | –
COc1ccc(-c2nc(N3CCOCC3)nc3n[nH]c(N)c23)cc1 | inconclusive: -4.62% [signal inhibitor] | –
COc1ccc(C2=C(N)c3ccccc3C2=O)cc1 | inactive | –
Cc1nn(-c2ccc(C(=O)O)cc2)c(=O)c2ccccc12 | inconclusive: 7.95% [signal inhibitor] | –
COc1ccc2c(c1)Cc1sc(NC(C)=O)nc1-2 | inactive | –
CCOC(=O)c1ccc(N=c2sc(C(=O)OC)cc(=O)n2CCCN2CCOCC2)cc1 | inconclusive: -4.11% [signal inhibitor] | –
Cc1ccc(CSc2ncc(Cl)c(C(=O)NCc3ccccc3)n2)cc1 | inactive | –

Structure (SMILES) | IkBa stabilization activation | Potency
COc1ccc2[nH]c3c(c2c1)CCN(C(=O)c1cccc(Cl)c1)C3c1ccc(F)cc1 (stereo not given) | inconclusive: 1.64% [signal inhibitor] | –
COc1cc2cc(C(=O)Nc3ccccc3)c(N)nc2cc1OC | inconclusive: 2.14% [signal inhibitor] | –
COc1ccc(-c2cn3cccnc3n2)cc1NC(=O)Nc1ccc(Cl)cc1 | inconclusive: 2.95% [signal inhibitor] | –
CC(C)[C@@H]1OC(=O)C=CC=CC=CC=CC=CC[C@@H](O)[C@H](C)[C@@H](O)C[C@H](O)C[C@H](O)C[C@H](O)C[C@H](O)C[C@H](O)C[C@H](O)C=C[C@@H]1C | inactive: 1.68% [at 11.4 µM, scaled: untreated 0%, proteasome inhibitor 100%] | –
Cn1c(C(=O)NCCc2c[nH]c3ccccc23)cc2sccc21 | inconclusive: 2.23% [signal inhibitor] | –
O=C(Nc1ccc(S(=O)(=O)Nc2ncccn2)cc1)c1cc(=O)c2ccccc2o1 | inconclusive: 2.77% [signal inhibitor] | –
CCOC(=O)c1cnc2c(-c3ccccc3)c(C)nn2c1N | inactive | –
O=C(NCc1ccco1)c1cc2ccccc2o1 | – | inconclusive: 10 µM [signal inhibitor, partial curve]
CCOc1ccc(NC(=O)c2ccc3c(c2)CCN3S(=O)(=O)CC)cc1 | inconclusive: 1.95% [signal inhibitor] | –
O=C(CC1C(=O)N(c2ccccc2)C(=O)N1Cc1ccc(F)cc1)Nc1cccc(F)c1 (stereo not given) | inconclusive: 1.93% [signal inhibitor] | –
COCCCNC(=O)c1ccc2c(c1)N(Cc1ccccc1)C(=O)c1ccccc1S2 | inactive | –
CN1CCc2c(sc3c2C(=O)NC(c2cn(Cc4ccccc4)c4ccccc24)N3)C1 (stereo not given) | inactive | –
O=[N+]([O-])c1ccc(C2=Nn3c(nnc3-c3ccc(Cl)cc3)SC2)o1 | inactive: 16.4% [at 11.4 µM, scaled: untreated 0%, proteasome inhibitor 100%] | –
CN(C)c1ccc(-c2ccc3ncnc(N(C)C)c3c2)cc1 | inconclusive: 9.04% [signal activator] [at 11.4 µM, scaled: untreated 0%, proteasome inhibitor 100%] | –
Cc1ccc2c(c1)N(C(=O)CCC(=O)NCc1ccccc1Cl)CC(C)O2 (stereo not given) | inconclusive: 0.505% [signal inhibitor] | –
Cc1ccccc1Nc1nc(-c2cccc(Cl)c2)c2c(n1)-c1ccccc1OC2 | inconclusive: -1.67% [signal inhibitor] | –
CC(NC(=O)Cn1c(=O)oc2cc(S(=O)(=O)NCc3ccccc3)ccc21)c1ccccc1 (stereo not given) | inconclusive: 1.03% [signal inhibitor] | –
COc1ccc(Nc2nc(N)c3cc(OC)c(OC)cc3n2)cc1 | inconclusive: 11.7% [signal inhibitor] | –
C=CCOc1c(Cl)cc(C2NC(=O)NC(C)=C2C(=O)OC)cc1Cl (stereo not given) | inconclusive: 8.09% [signal inhibitor] | –
CCOC(=O)c1scc(-c2ccccc2)c1S(=O)(=O)Nc1cc(Cl)c(OC)cc1OC | inactive | –
COc1ccc(CNC(=O)c2c3c(nc4ccccc24)C(=O)N(C2CCCCC2)C3)cc1 | inconclusive: 0.329% [signal inhibitor] | –
